According to patent US10766928B2, “Targeted conformationally-constrained kinked endosomal disrupting peptides” (priority 2012, dated 2020):
At least one peptide structure holds a part that was inferred or is arguable (an end, a ring closure or a residue). Some results were stated once for a whole list of compounds, not compound by compound. Non-standard residues stand in square brackets, D forms with d. Residues, ends and D or L forms follow the SMILES beside them. *: point of attachment. Pentanoyl(5-NH-cholesteryl) = CC(C)CCC[C@@H](C)[C@H]1CC[C@H]2[C@@H]3CC=C4C[C@@H](NCCCCC(=O)*)CC[C@]4(C)[C@H]3CC[C@]12C; Cholesteryloxycarbonyl = CC(C)CCC[C@@H](C)[C@H]1CC[C@H]2[C@@H]3CC=C4C[C@@H](OC(=O)*)CC[C@]4(C)[C@H]3CC[C@]12C; PEG3 = NCCOCCOCCOCCC(=O)O; Pra = C#CC[C@H](N)C(=O)O; Aib = CC(C)(N)C(=O)O; βAla = NCCC(=O)O

System: endosomes of Jurkat lymphocytes
Assay: Endosome disruption in Jurkat lymphocytes: release of carboxyfluorescein from disulfide probe Compound 2, flow cytometry
Details: for Efficacy (% of max. 1): Table 1, % change in cellular fluorescence relative to maximal response of Compound 1 (100%), Jurkat, 14 hours; for Endosome disruption activity (in words): Jurkat endosome disruption assay
Protocol: The effects of the compounds of the invention on human Juikat leukemia cells were evaluated using flow cytometry-based assays of potency, efficacy, and toxicity. […] Analysis of flow cytometry data by non-linear regression was used to determine IC50 values for potency with the efficacy expressed as a percentage. […] Dose-dependent effects on cellular viability after 48 h at 37° C. in culture were also measured by flow cytometry.
The # represents the compound number in accordance with Tables A, B, and C. Concentrations of compound stock solutions were determined by absorbance measurements at 280 nm. Efficacy was determined as % change in cellular fluorescence relative to the maximal response of Compound 1, defined as 100%. Potencies and efficacies in Jurkat lymphocytes were measured by flow cytometry after treatment of cells with the compounds listed and the fluorescent probe Compound 2 (2.5 μM) for 14 hours. Toxicity to this cell line was determined by flow cytometry analysis of light scattering and counterstaining with PI after treatment for 48 h at 37° C. in culture. […] N.D., not determined.
Cells were treated with fluorescent molecular probe Compound 2 (2.5 μM) and endosome disruptors for 14 hours at 37° C. Enhanced cellular fluorescence resulting from release of the pH-sensitive fluorophore Compound 3 into the cytoplasm was quantified by flow cytometry.
Natural amino acids are represented by single letter codes. Codes for non-standard elements are as follows: Ch1: (3β-Cholest-5-en-3-yl-ammonio)pentanoyl; Ch2: (Cholester-3-yl)oxy-βAla-βAla; X: ε-Ahx; U: Aib; PB: Pacific Blue fluorophore. O: 3-(2-(2-(2-aminoethoxy)ethoxy)ethoxy)propanyl.

Compound	Efficacy (% of max. 1) [%]	Endosome disruption activity (in words)
CC(C)CCC[C@@H](C)[C@H]1CC[C@H]2[C@@H]3CC=C4C[C@@H](NCCCCC(=O)NCCC(=O)N[C@@H](CCC(=O)O)C(=O)N[C@@H](CCC(=O)O)C(=O)NCCOCCOCCOCCC(=O)NCCOCCOCCOCCC(=O)NC(C)(C)C(=O)NC(C)(C)C(=O)NC(C)(C)C(=O)NC(C)(C)C(=O)N[C@@H](Cc5c[nH]c6ccccc56)C(=O)N[C@@H](Cc5c[nH]c6ccccc56)C(=O)N[C@@H](C)C(=O)N[C@@H](Cc5ccc(O)cc5)C(=O)N[C@@H](Cc5c[nH]c6ccccc56)C(=O)N5CCC[C@H]5C(=O)N5CCC[C@H]5C(=O)N[C@H](C(=O)N[C@@H](C)C(=O)N[C@@H](C)C(N)=O)C(C)C)CC[C@]4(C)[C@H]3CC[C@]12C [Compound 27, R = BEEOOUUUUWWAYWPPVAA-CONH2] ({Pentanoyl(5-NH-cholesteryl)-βAla}-EE[PEG3][PEG3][Aib][Aib][Aib][Aib]WWAYWPPVAA-NH2)	81	
CC(C)CCC[C@@H](C)[C@H]1CC[C@H]2[C@@H]3CC=C4C[C@@H](NCCCCC(=O)NCCC(=O)N[C@@H](CCC(=O)O)C(=O)N[C@@H](CCC(=O)O)C(=O)NCCOCCOCCOCCC(=O)NCCOCCOCCOCCC(=O)NC(C)(C)C(=O)NC(C)(C)C(=O)NC(C)(C)C(=O)NC(C)(C)C(=O)N[C@@H](Cc5ccc(O)cc5)C(=O)N[C@@H](Cc5ccc(O)cc5)C(=O)N[C@@H](C)C(=O)N[C@@H](Cc5ccc(O)cc5)C(=O)N[C@@H](Cc5ccc(O)cc5)C(=O)N5CCC[C@H]5C(=O)N5CCC[C@H]5C(=O)N[C@H](C(=O)N[C@H](C(N)=O)C(C)C)C(C)C)CC[C@]4(C)[C@H]3CC[C@]12C [Compound 28, R = BEEOOUUUUYYAYYPPVV-CONH2] ({Pentanoyl(5-NH-cholesteryl)-βAla}-EE[PEG3][PEG3][Aib][Aib][Aib][Aib]YYAYYPPVV-NH2)	122	
CC(C)CCC[C@@H](C)[C@H]1CC[C@H]2[C@@H]3CC=C4C[C@@H](NCCCCC(=O)NCCC(=O)N[C@@H](CCC(=O)O)C(=O)N[C@@H](CCC(=O)O)C(=O)NCCOCCOCCOCCC(=O)NCCOCCOCCOCCC(=O)NC(C)(C)C(=O)NC(C)(C)C(=O)NC(C)(C)C(=O)NC(C)(C)C(=O)N[C@@H](Cc5ccc(O)cc5)C(=O)N[C@@H](Cc5ccc(O)cc5)C(=O)N[C@@H](Cc5ccc(O)cc5)C(=O)N[C@@H](Cc5ccc(O)cc5)C(=O)N[C@@H](Cc5ccc(O)cc5)C(=O)N5CCC[C@H]5C(=O)N5CCC[C@H]5C(=O)N[C@H](C(=O)N[C@H](C(N)=O)C(C)C)C(C)C)CC[C@]4(C)[C@H]3CC[C@]12C [Compound 29, R = BEEOOUUUUYYYYYPPVV-CONH2] ({Pentanoyl(5-NH-cholesteryl)-βAla}-EE[PEG3][PEG3][Aib][Aib][Aib][Aib]YYYYYPPVV-NH2)	125	
C#CC[C@H](NC(=O)[C@H](CCC(=O)O)NC(=O)[C@H](CCC(=O)O)NC(=O)CCNC(=O)CCCCN[C@H]1CC[C@@]2(C)C(=CC[C@H]3[C@@H]4CC[C@H]([C@H](C)CCCC(C)C)[C@@]4(C)CC[C@@H]32)C1)C(=O)NCCOCCOCCOCCC(=O)NCCOCCOCCOCCC(=O)NC(C)(C)C(=O)NC(C)(C)C(=O)NC(C)(C)C(=O)NC(C)(C)C(=O)N[C@@H](Cc1ccc(O)cc1)C(=O)N[C@@H](Cc1ccc(O)cc1)C(=O)N[C@@H](C)C(=O)N[C@@H](Cc1ccc(O)cc1)C(=O)N[C@@H](Cc1ccc(O)cc1)C(=O)N1CCC[C@H]1C(=O)N1CCC[C@H]1C(=O)N[C@H](C(=O)N[C@H](C(N)=O)C(C)C)C(C)C [Compound 30, R = BEEZOOUUUUYYAYYPPVV-CONH2] ({Pentanoyl(5-NH-cholesteryl)-βAla}-EE[Pra][PEG3][PEG3][Aib][Aib][Aib][Aib]YYAYYPPVV-NH2)	127	
C#CC[C@H](NC(=O)[C@H](CCC(=O)O)NC(=O)[C@H](CCC(=O)O)NC(=O)CCNC(=O)CCCCN[C@H]1CC[C@@]2(C)C(=CC[C@H]3[C@@H]4CC[C@H]([C@H](C)CCCC(C)C)[C@@]4(C)CC[C@@H]32)C1)C(=O)NCCOCCOCCOCCC(=O)NCCOCCOCCOCCC(=O)NC(C)(C)C(=O)NC(C)(C)C(=O)NC(C)(C)C(=O)NC(C)(C)C(=O)N[C@@H](Cc1c[nH]c2ccccc12)C(=O)N[C@@H](Cc1c[nH]c2ccccc12)C(=O)N[C@@H](C)C(=O)N[C@@H](Cc1ccc(O)cc1)C(=O)N[C@@H](Cc1c[nH]c2ccccc12)C(=O)N1CCC[C@H]1C(=O)N1CCC[C@H]1C(=O)N[C@H](C(=O)N[C@@H](C)C(N)=O)C(C)C [Compound 31, R = BEEZOOUUUUWWAYWPPVA-CONH2] ({Pentanoyl(5-NH-cholesteryl)-βAla}-EE[Pra][PEG3][PEG3][Aib][Aib][Aib][Aib]WWAYWPPVA-NH2)	119	
C#CC[C@H](NC(=O)CCNC(=O)CCNC(=O)O[C@H]1CC[C@@]2(C)C(=CC[C@H]3[C@@H]4CC[C@H]([C@H](C)CCCC(C)C)[C@@]4(C)CC[C@@H]32)C1)C(=O)NCCOCCOCCOCCC(=O)NCCOCCOCCOCCC(=O)NC(C)(C)C(=O)NC(C)(C)C(=O)NC(C)(C)C(=O)NC(C)(C)C(=O)N[C@@H](Cc1c[nH]c2ccccc12)C(=O)N[C@@H](Cc1c[nH]c2ccccc12)C(=O)N[C@@H](C)C(=O)N[C@@H](Cc1ccc(O)cc1)C(=O)N[C@@H](Cc1c[nH]c2ccccc12)C(=O)N1CCC[C@H]1C(=O)N1CCC[C@H]1C(=O)N[C@H](C(=O)N[C@@H](C)C(N)=O)C(C)C [Compound 33, R″ = BZOOUUUUWWAYWPPVA-CONH2] ({Cholesteryloxycarbonyl-βAla-βAla}-[Pra][PEG3][PEG3][Aib][Aib][Aib][Aib]WWAYWPPVA-NH2)	129	highly active and potent
CC(C)CCC[C@@H](C)[C@H]1CC[C@H]2[C@@H]3CC=C4C[C@@H](OC(=O)NCCC(=O)NCCC(=O)N[C@@H](CCC(=O)O)C(=O)N[C@@H](CCC(=O)O)C(=O)NCCOCCOCCOCCC(=O)NCCOCCOCCOCCC(=O)NC(C)(C)C(=O)NC(C)(C)C(=O)NC(C)(C)C(=O)NC(C)(C)C(=O)N[C@@H](Cc5c[nH]c6ccccc56)C(=O)N[C@@H](Cc5c[nH]c6ccccc56)C(=O)N[C@@H](C)C(=O)N[C@@H](Cc5ccc(O)cc5)C(=O)N[C@@H](Cc5c[nH]c6ccccc56)C(=O)N5CCC[C@H]5C(=O)N5CCC[C@H]5C(=O)N[C@H](C(=O)N[C@@H](C)C(N)=O)C(C)C)CC[C@]4(C)[C@H]3CC[C@]12C [Compound 34, R″ = BEEOOUUUUWWAYWPPVA-CONH2] ({Cholesteryloxycarbonyl-βAla-βAla}-EE[PEG3][PEG3][Aib][Aib][Aib][Aib]WWAYWPPVA-NH2)	102	retained high potency/efficacy
C#CC[C@H](NC(=O)[C@H](CCC(=O)O)NC(=O)[C@H](CCC(=O)O)NC(=O)CCNC(=O)CCNC(=O)O[C@H]1CC[C@@]2(C)C(=CC[C@H]3[C@@H]4CC[C@H]([C@H](C)CCCC(C)C)[C@@]4(C)CC[C@@H]32)C1)C(=O)NCCOCCOCCOCCC(=O)NCCOCCOCCOCCC(=O)NC(C)(C)C(=O)NC(C)(C)C(=O)NC(C)(C)C(=O)NC(C)(C)C(=O)N[C@@H](Cc1c[nH]c2ccccc12)C(=O)N[C@@H](Cc1c[nH]c2ccccc12)C(=O)N[C@@H](C)C(=O)N[C@@H](Cc1ccc(O)cc1)C(=O)N[C@@H](Cc1c[nH]c2ccccc12)C(=O)N1CCC[C@H]1C(=O)N1CCC[C@H]1C(=O)N[C@H](C(=O)N[C@@H](C)C(N)=O)C(C)C [Compound 35, R″ = BEEZOOUUUUWWAYWPPVA-CONH2] ({Cholesteryloxycarbonyl-βAla-βAla}-EE[Pra][PEG3][PEG3][Aib][Aib][Aib][Aib]WWAYWPPVA-NH2)	114	highly potent, active, and soluble in PBS
C#CC[C@H](NC(=O)[C@H](CCC(=O)O)NC(=O)[C@H](CCC(=O)O)NC(=O)CCNC(=O)CCNC(=O)O[C@H]1CC[C@@]2(C)C(=CC[C@H]3[C@@H]4CC[C@H]([C@H](C)CCCC(C)C)[C@@]4(C)CC[C@@H]32)C1)C(=O)NCCOCCOCCOCCC(=O)NCCOCCOCCOCCC(=O)NC(C)(C)C(=O)NC(C)(C)C(=O)NC(C)(C)C(=O)NC(C)(C)C(=O)N[C@@H](Cc1c[nH]c2ccccc12)C(=O)N[C@@H](Cc1c[nH]c2ccccc12)C(=O)N[C@@H](C)C(=O)N[C@@H](Cc1ccc(O)cc1)C(=O)N[C@@H](Cc1c[nH]c2ccccc12)C(=O)N1CCC[C@H]1C(=O)N1CCC[C@H]1C(=O)N[C@H](C(=O)N[C@H](C(N)=O)C(C)C)C(C)C [Compound 36, R″ = BEEZOOUUUUWWAYWPPVV-CONH2] ({Cholesteryloxycarbonyl-βAla-βAla}-EE[Pra][PEG3][PEG3][Aib][Aib][Aib][Aib]WWAYWPPVV-NH2)	128	highly potent, active, and soluble in PBS
C#CC[C@H](NC(=O)[C@H](CCC(=O)O)NC(=O)[C@H](CCC(=O)O)NC(=O)CCNC(=O)CCNC(=O)O[C@H]1CC[C@@]2(C)C(=CC[C@H]3[C@@H]4CC[C@H]([C@H](C)CCCC(C)C)[C@@]4(C)CC[C@@H]32)C1)C(=O)NCCOCCOCCOCCC(=O)NCCOCCOCCOCCC(=O)NC(C)(C)C(=O)NC(C)(C)C(=O)NC(C)(C)C(=O)NC(C)(C)C(=O)N[C@@H](Cc1c[nH]c2ccccc12)C(=O)N[C@@H](Cc1c[nH]c2ccccc12)C(=O)N[C@@H](C)C(=O)N[C@@H](Cc1ccc(O)cc1)C(=O)N[C@@H](Cc1ccc(O)cc1)C(=O)N1CCC[C@H]1C(=O)N1CCC[C@H]1C(=O)N[C@H](C(=O)N[C@H](C(N)=O)C(C)C)C(C)C [Compound 37, R″ = BEEZOOUUUUWWAYYPPVV-CONH2] ({Cholesteryloxycarbonyl-βAla-βAla}-EE[Pra][PEG3][PEG3][Aib][Aib][Aib][Aib]WWAYYPPVV-NH2)	130	highly potent, active, and soluble in PBS
